From PubChem BioAssay AID360 (National Center for Advancing Translational Sciences (NCATS), 2006) come the findings set out here.

Structures are written as SMILES. About 550 (1.1%) of roughly 48,000 compounds were called active. Another 4% or so got no clear call; they are omitted. Cut-off read from the data, not from the text of the source: active = potency below about 15 µM; inconclusive = mostly about 16 µM to 33 µM; inactive = weaker than that. Some of the results follow.
Potency is the fitted concentration of half-maximal effect.

Chain of UniProt P04062 (P04062 whole entry, looked up): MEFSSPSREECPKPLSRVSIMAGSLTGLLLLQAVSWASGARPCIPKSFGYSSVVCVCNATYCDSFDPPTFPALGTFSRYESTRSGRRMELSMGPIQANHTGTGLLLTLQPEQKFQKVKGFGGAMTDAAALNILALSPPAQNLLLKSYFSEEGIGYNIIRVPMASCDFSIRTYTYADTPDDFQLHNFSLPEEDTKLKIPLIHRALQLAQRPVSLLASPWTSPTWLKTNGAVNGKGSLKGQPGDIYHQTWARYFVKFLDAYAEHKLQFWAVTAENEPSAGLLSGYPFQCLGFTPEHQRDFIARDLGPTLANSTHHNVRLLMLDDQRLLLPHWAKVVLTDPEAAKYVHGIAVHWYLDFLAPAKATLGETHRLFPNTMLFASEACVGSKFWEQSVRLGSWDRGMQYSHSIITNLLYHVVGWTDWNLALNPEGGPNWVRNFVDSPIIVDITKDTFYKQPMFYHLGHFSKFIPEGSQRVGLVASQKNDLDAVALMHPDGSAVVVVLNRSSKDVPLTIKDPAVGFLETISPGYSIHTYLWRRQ

This assay concerns the target Lysosomal acid glucosylceramidase (Homo sapiens) (UniProt P04062). The assay can be described thus: Glucocerebrosidase.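 Note: the screen sought inhibitors.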 The settings on record: purified enzyme, resorufin glucoside fluorescence (screen aimed at inhibitors), 20 min. A digest of the protocol:
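Wild-type enzyme at 0.2 nM final in 50mM citric acid/KH2PO4, 10mM sodium taurocholate, 0.01% tween-20, pH 5.9, with resorufin beta-D-glucopyranoside at 30 uM final. Compounds titrated, 20 min at RT, red fluorescence read; AC50 from titration.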
`CC1CCC(NC(=O)C2CCN(c3cnccn3)CC2)CC1` (centres undefined): the Potency is inactive: > 76.9 µM.
Turning to `CCOC(=O)c1cc(C#N)c(NCc2ccccc2)nc1C`, the Potency was inactive: > 76.9 µM.
As to `CC(=O)c1cc2c(cc1NC(=O)C1CC=CCC1C(=O)O)OCO2` (centres undefined), the Potency was inactive: > 76.9 µM.
To `CCOc1ccc(OCC)c(NC(=O)CN2CCN(c3cc(C)ccc3C)CC2)c1` belongs inactive: > 76.9 µM; to `Cn1c2c(c(=O)[nH]c1=O)C(NC(=O)c1ccco1)(C(F)(F)F)C(=O)N2` (centres undefined), inactive: > 76.9 µM.
Regarding `O=C(c1cccs1)N1CCC(c2nc3ccccc3s2)CC1`, the Potency is inactive: > 76.9 µM.
`CCOC(=O)c1c(NC(=O)CSc2nnc(-c3ccccc3)n2CC)sc(C(C)=O)c1C`: the Potency is inactive: > 76.9 µM.
`COc1ccc(S(=O)(=O)N(C)CC(=O)Nc2ccccc2OC)cc1C`: the Potency is inactive: > 76.9 µM.
Turning to `CC(=O)Nc1ccc(C(=O)CS(=O)(=O)c2ccc(C)cc2)cc1`, the Potency was inactive: > 76.9 µM.
For the compound `CCn1c(-c2cc(Br)cc(OC)c2O)nc2cc(S(=O)(=O)N(C)C)ccc21`, the Potency was inactive: > 76.9 µM.
In the case of `CCOC(=O)N1CCN(c2nc(C)cc(C(F)(F)F)n2)CC1`, the Potency is inactive: > 76.9 µM.
`C=CCn1c(SCn2nnc3ccccc3c2=O)nnc1-c1ccc(Cl)cc1`: the Potency was inactive: > 76.9 µM.
As for `Brc1ccc(-c2nn3c(Cc4ccccc4)nnc3s2)o1`, the Potency is inactive: > 76.9 µM.
As for `CCc1cc2c(NCCN3CCCCC3)ncnc2s1`, the Potency entry was “inactive”.
The value for `COc1ccc(S(=O)(=O)NC2CCCCC2)cc1C` was inactive: > 76.9 µM; that for `CCOC(=O)c1ccc(NC2OC(=O)c3ccccc32)cc1` (centres undefined) was inactive: > 76.9 µM.
As for `COc1cc(OC)cc(-n2nnnc2SCC(=O)N2CCCc3ccccc32)c1`, the Potency was inactive: > 76.9 µM.
For the compound `C=CCn1c(SCc2c(C)noc2C)nc2sc3c(c2c1=O)CCCCC3`, the Potency result is “inactive”.
As for `CCOC(=O)c1[nH]c(C(=O)O)c(CCC(=O)OC)c1C`, the Potency is inactive: > 76.9 µM.
Turning to `CC(=O)c1cc2c(cc1NC(=O)CCCC(=O)O)OCO2`, the Potency was inactive: > 76.9 µM.
The value for `CCOCC(=O)Nc1cc(OC)c(Cl)cc1OC` was inactive: > 76.9 µM.
The value for `Nn1c(SC/C=C/c2ccccc2)nnc1-c1ccncc1` was inactive: > 76.9 µM; that for `CCCCNC(=O)CSc1nnc(-c2ccco2)n1C` was inactive: > 76.9 µM; that for `CCOC(=O)c1c(CN2CCCCC2)n(C)c2cc(Br)c(OC)cc12` was inactive: > 76.9 µM.
Turning to `O=C(O)c1oc2ccc(Br)cc2c1-n1cccc1`, the Potency is inactive: > 76.9 µM.
In the case of `S=c1nc(-c2ccccc2)n(CCN2CCOCC2)c2c1CCCC2`, the Potency was inactive: > 76.9 µM.
The value for `CCN1CCN(Cc2nc3c(c(=O)n(C)c(=O)n3C)n2C(C)C(C)=O)CC1` (centres undefined) was inactive: > 76.9 µM; that for `CCc1ccccc1NC(=O)CSc1nnc([C@H](CCSC)NC(=O)OC(C)(C)C)o1` was inactive: > 76.9 µM; that for `Nc1nonc1C(=O)OCC(=O)N1CCCCC1` was inactive: > 76.9 µM.
Take `CCOc1ccccc1N1CC(C(=O)Nc2ccc(C(=O)O)cc2)CC1=O` (centres undefined): the Potency was inactive: > 76.9 µM.
With `CCOc1ccc(CCNC(=O)C2CCN(S(=O)(=O)N3CCOCC3)CC2)cc1OCC`, the Potency is inactive: > 76.9 µM.
To `Cc1cc(C)nc(Sc2nc(C)nc3c2oc2ccccc23)n1` belongs inactive: > 76.9 µM.
Consider `CCOC(=O)N1CCN(C(=O)c2cc(-c3ccc(OCC)cc3)nc3ccccc23)CC1`, for which the Potency was inactive: > 76.9 µM.
In the case of `CC12CC(c3ccccc3O1)C(C(=O)NCc1ccccc1)C(=O)N2` (centres undefined), the Potency was inactive: > 76.9 µM.
On to `CCOC(=O)Nc1nnc(CCc2ccccc2)s1`, for which the Potency is inactive: > 76.9 µM.
Regarding `Cc1ccccc1NCc1ccccc1O`, the Potency is inactive: > 76.9 µM.
Regarding `CC1CCN(CCCNC(=O)C2CCN(S(=O)(=O)N3CCCCC3)CC2)CC1`, the Potency was inactive: > 76.9 µM.
As to `CCN(CC)C(=O)CCC(=O)Nc1ccc(C(=O)OC)cc1`, the Potency is inactive: > 76.9 µM.
For the compound `O=C(O)C1CC(=O)N(c2ccc(F)c(F)c2)C1` (centres undefined), the Potency is inactive: > 76.9 µM.
The value for `COc1ccc(N2CC(O)=C(c3nc4ccccc4s3)C2=N)c(OC)c1` was inactive: > 76.9 µM.
In the case of `O=C(CC1CCCCC1)NCc1cn2ccsc2n1`, the Potency is inactive: > 76.9 µM.
Take `COc1ccc(NC(=O)c2cc(-c3cccs3)on2)cc1OC`: the Potency was inactive: > 76.9 µM.
Turning to `O=C(Oc1ccc(-c2nnco2)cc1)N1CCOCC1`, the Potency is inactive: > 76.9 µM.
As to `Cc1ccc(-n2c(Cc3cccn3C)nnc2SCC(=O)NC2CCCCC2)cc1`, the Potency is inactive: > 76.9 µM.
With `CCN1CCN(CC(=O)Nc2c(C(=O)OC)[nH]c3cccc(Cl)c23)CC1`, the Potency is inactive: > 76.9 µM.
Take `COc1nc(C#N)c(N2CCOCC2)o1`: the Potency is inactive: > 76.9 µM.
In the case of `O=C1c2ccccc2NC(c2cnc3ccccc3n2)N1O` (centres undefined), the Potency is inactive: > 76.9 µM.
Turning to `Cc1ccc(NCc2nc3ccccc3n2C)cc1`, the Potency is inactive: > 76.9 µM.
Consider `COc1ccc(-n2nnc3c(=O)n(Cc4cc(C)ccc4C)cnc32)cc1`, for which the Potency is inactive: > 76.9 µM.
For the compound `COc1cccc(C(=O)CSc2nnc(-c3cccs3)o2)c1`, the Potency is inactive: > 76.9 µM.
Consider `COc1ccccc1N1CCN(C(=O)c2cc(-c3ccc4c(c3)OCO4)on2)CC1`, for which the Potency is inactive: > 76.9 µM.
In the case of `C=CCNc1ncnc2ccccc12`, the Potency was inactive: > 76.9 µM.
On to `COC(=O)c1[nH]c(C)c(/C(O)=C2\C(=O)C(=O)N(CCN(C)C)C2c2cc(OC)ccc2OC)c1C` (centres undefined), for which the Potency is inactive: > 76.9 µM.
For `Cc1ccnc(N2CCC(C(=O)NC3CCCCCC3)CC2)n1`, the Potency is inactive: > 76.9 µM.
Regarding `O=C(NCc1ccccc1)N1CCC(n2cnc3cc(F)ccc32)CC1`, the Potency is inactive: > 76.9 µM.
As for `COC(=O)COc1ccc(S(=O)(=O)NCc2ccco2)cc1`, the Potency was inactive: > 76.9 µM.
For `COC(=O)C1CCN(c2cc(=O)n(C3CCCCC3)c(=O)[nH]2)CC1`, the Potency was inactive: > 76.9 µM.
Take `Cc1cc(C)n(-c2ccc(C(=O)OCC(=O)Nc3ccc(S(=O)(=O)N4CCOCC4)cc3)cc2)n1`: the Potency is inactive: > 76.9 µM.
As for `CCN=C1SC(CC(=O)Nc2sc(C)c(C)c2C(=O)OC)C(=O)N1CC` (centres undefined), the Potency was inactive: > 76.9 µM.
For the compound `CC(NC(=O)Cc1cccs1)C(c1cccs1)N1CCN(c2ccccc2F)CC1` (centres undefined), the Potency was inactive: > 76.9 µM.
The value for `Cc1ccc(CNC(=O)C2CC(=O)OC23CCCC3)c(C)c1` (centres undefined) was inactive: > 76.9 µM; that for `Cn1nnc(NC(=O)CSc2ncn[nH]2)n1` was inactive: > 76.9 µM; that for `CCOCC(=O)NCc1ccc2c(c1)OCO2` was inactive: > 76.9 µM.
To `Cc1cc(NC(=O)CSc2nc(-c3ccco3)cc(C(F)(F)F)n2)n(-c2ccccc2)n1` belongs inactive: > 76.9 µM; to `O=C(Cn1nnc(-c2ccc3c(c2)OCO3)n1)N1CCOCC1`, inactive: > 76.9 µM; to `O=C(COc1ccc(Br)cc1CO)Nc1ccc(F)cc1`, inactive: > 76.9 µM.
In the case of `CCn1c(SCC(=O)c2ccccc2)nnc1-c1ccoc1C`, the Potency was inactive: > 76.9 µM.
Regarding `CC(=O)c1cc2c(cc1N)OCO2`, the Potency was inactive: > 76.9 µM.
To `Cc1ccc(SCc2nc(-c3cccnc3)no2)cc1` belongs inactive: > 76.9 µM.
On to `CN(C)CCNC(=O)Cc1c(C(=O)O)n(C)c2ccccc12`, for which the Potency is inactive: > 76.9 µM.
`CCCCCCn1c(NCC)nc2c1c(=O)n(C)c(=O)n2C`: the Potency was inactive: > 76.9 µM.
To `CCCCn1c(=O)c2c(c3ccccc31)OCC(=O)N2` belongs inactive: > 76.9 µM; to `CC(NC(=O)CSc1ncccn1)c1ccccc1` (centres undefined), inactive: > 76.9 µM.
For `CCOc1ccccc1C(=O)Nc1ccc(-c2nnc(-c3ccc(C)cc3)o2)cc1`, the Potency is inactive: > 76.9 µM.
On to `N#C/C(=C\C1CC=CCC1)c1nc2ccccc2[nH]1` (centres undefined), for which the Potency result was “inactive”.
For `O=C(CN1CCC2(CC1)OCCO2)c1ccc2cc[nH]c2c1`, the Potency was inactive: > 76.9 µM.
For the compound `CCC(C)NS(=O)(=O)c1ccc(OCC(=O)NCc2ccc3c(c2)OCO3)cc1` (centres undefined), the Potency was inactive: > 76.9 µM.
As to `CS(=O)(=O)N(CC(O)Cn1c2ccccc2c2ccccc21)c1ccccc1` (centres undefined), the Potency is inactive: > 76.9 µM.
Take `O=C(Oc1cccc(N2C(=O)CCC2=O)c1)C1CC(=O)N(c2ccc(Br)cc2)C1` (centres undefined): the Potency was inactive: > 76.9 µM.
Take `Cc1cccc(OCc2nnc(SCc3nc4ccccc4c(=O)[nH]3)o2)c1`: the Potency was inactive: > 76.9 µM.
In the case of `CCOC(=O)c1sc(=S)n(CC)c1N`, the Potency was inactive: > 76.9 µM.
The value for `CCOC(=O)c1c(C)[nH]c(C)c1-c1ccccc1OC` was inactive: > 76.9 µM.
On to `COC(=O)c1sc2nc(CN3CCOCC3)nc(N3CCOCC3)c2c1C`, for which the Potency is inactive: > 76.9 µM.
The value for `N#Cc1cc2ccccc2nc1SCc1ccccn1` was inactive: > 76.9 µM.
With `Cc1nn(Cc2ccc(Cl)c(Cl)c2)c(C)c1NC(=O)c1noc2c1CCCCC2`, the Potency result was “inactive”.
To `O=C(O)CSc1nnc(-c2ccccc2O)n1Cc1ccccc1` belongs inactive: > 76.9 µM; to `CCOC(=O)C1CCN(C(=O)c2cccnc2)CC1`, inactive: > 76.9 µM; to `COc1ccc(CCNC(=O)Cn2c(=O)n(Cc3ccco3)c(=O)c3ccc(Cl)cc32)cc1OC`, inactive: > 76.9 µM.
As for `O=C(NC1CCCCC1)C1CCN(C(=O)NCc2ccccc2)CC1`, the Potency is inactive: > 76.9 µM.
Regarding `O=C(NCCN1CCCCCC1)C1CCN(S(=O)(=O)N2CCOCC2)CC1`, the Potency is inactive: > 76.9 µM.
The value for `NC(=O)NCC12CC3CC(CC(C3)C1)C2` was inactive: > 76.9 µM; that for `COCCCn1c(SCC(=O)Nc2ccc(C(C)=O)cc2)nc2ccccc2c1=O` was inactive: > 76.9 µM; that for `CCOC(=O)c1ccc(NC(=O)N2CCc3ccccc32)cc1` was inactive: > 76.9 µM.
The value for `COc1ccc(C2C(C(C)=O)=C(C)N=c3s/c(=C/c4ccc5c(c4)OCO5)c(=O)n32)cc1` (centres undefined) was inactive: > 76.9 µM.
